Results taken from PubChem BioAssay AID340 (DTP/NCI, 2004).
Inconclusive results and toxic doses are left out. Certain results were filed several times, with different values. They are shown here; other results are not. An entry can have further records. The values listed for one entry repeat one measurement (runs, samples, wells, individuals or studies).

Tested on: CD2F1 mice, ip reticulum cell sarcoma, survival T/C
Assay: NCI In Vivo Anticancer Drug Screen. Data for tumor model Reticulum Cell Sarcoma (Kelley Mouse) (intraperitoneal) in CD2F1 (CDF1) mice
Details: endpoint: median survival time, schedule: Q01DX010 (ip), vehicle: saline, higher = longer survival
Protocol: The antitumor activity of compounds was measured in mice bearing transplantable tumors. Survival or tumor size were measured and the results are expressed as the measurement made in the treated group (T) divided by the measurement made in the vehicle treated control group (C). The tumor model used in this assay is Reticulum Cell Sarcoma (Kelley Mouse) (intraperitoneal) in CD2F1 (CDF1) mice

With `O=C(Nc1ccc(C2=NCCN2)cc1)c1ccc(C(=O)Nc2ccc(C3=NCCN3)cc2)c([N+](=O)[O-])c1` the T/C (dose: 18.0 mg/kg/injection) was 89 % of control and 189 % of control.

`OCC1OC(n2cnc3c(=S)nc[nH]c32)C(O)C1O` (stereo unspecified) was tested, and the T/C (dose: 40.0 mg/kg/injection) was 123 % of control and 172 % of control.

In the case of `S=P(N1CCOCC1)(N1CC1)N1CC1`, the T/C (dose: 20.0 mg/kg/injection) is reported as 112 % of control and 162 % of control.

With `Nc1nc(SCc2ccccc2)c2[nH]cnc2n1` the T/C (dose: 32.0 mg/kg/injection) was 106 % of control and 190 % of control.

In the case of `C1CN1c1nc(N2CC2)nc(N2CC2)n1`, the T/C (dose: 0.5 mg/kg/injection) is reported as 106 % of control and 170 % of control.

`CN(C)c1ccc(Nc2c3ccccc3nc3ccccc23)cc1` was tested, and the T/C (dose: 36.0 mg/kg/injection) was 110 % of control and 162 % of control.
